Assay results: PubChem BioAssay AID624417 (National Center for Advancing Translational Sciences (NCATS), 2012)
In all, about 410,000 compounds went through this assay and about 6,400 (1.6%) were called active. The shares of active, inactive and inconclusive entries below differ from those in the screen. Calls follow the shape of the dose curve; as a rule, active = well fitted inhibition curve with a large enough effect; inconclusive = small, poorly fitted or top-dose-only effect; inactive = no such curve, though single readings can be large or run the other way. A potency beside an inconclusive call is a rough fit, not a confirmed value.

These compounds were tested against Glucagon-like peptide 1 receptor (Homo sapiens) (UniProt P43220) (assay: qHTS of GLP-1 Receptor Inverse Agonists (Inhibition Mode)). Settings: HEK293 GLP-1R CRE-luciferase, luminescence, 24 h, GLP-1R form is constitutively active; activity change, negative = inhibition: at 38.3 µM (top of the series) unless noted.
How it was run: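 Constitutively active GLP-1R drives a cAMP-responsive luciferase in stably transfected HEK293 cells; test compounds are added after overnight (12 h) attachment and left 24 hr, and signal loss in luminescence marks inhibition.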
% is scaled to controls: 0 for no effect and ±100 for the full control effect; potency is read from the fitted curve at half-maximal effect; tags tell the direction and shape of the fitted curve.
Also: nearly all actives have a fitted effect of over 55% in size.

Chain of UniProt P43220 (P43220 whole entry, looked up): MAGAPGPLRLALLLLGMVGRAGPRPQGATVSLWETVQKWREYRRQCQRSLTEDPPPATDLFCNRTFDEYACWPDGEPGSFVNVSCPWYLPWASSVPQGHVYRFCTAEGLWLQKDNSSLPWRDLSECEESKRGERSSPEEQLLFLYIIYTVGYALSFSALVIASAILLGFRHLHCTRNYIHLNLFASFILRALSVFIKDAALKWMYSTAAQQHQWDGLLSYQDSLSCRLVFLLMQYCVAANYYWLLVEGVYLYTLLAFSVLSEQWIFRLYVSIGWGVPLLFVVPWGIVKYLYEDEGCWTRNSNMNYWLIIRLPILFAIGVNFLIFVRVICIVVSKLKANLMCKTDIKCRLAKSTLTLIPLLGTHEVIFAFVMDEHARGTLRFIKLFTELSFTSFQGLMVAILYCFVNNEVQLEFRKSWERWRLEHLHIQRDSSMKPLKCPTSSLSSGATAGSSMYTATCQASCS

Potency, inconclusive:
COc1ccc(CC(N)c2csc(Nc3nncc4ccccc34)n2)cc1 (stereo unspecified) 11.2 µM [inhibitor, partial curve, poor fit], CNC(=O)CSc1nc(-c2ccccc2)c(-c2ccccc2)[nH]1 28.2 µM [inhibitor, single point], COc1ccc(OC)c(CNC(=O)c2ccc(-c3nc(CSc4ccccc4)c(C)o3)cc2)c1 8.91 µM [inhibitor, partial curve, poor fit], Cc1cc(Cc2cc(C)c(O)c(CO)c2)cc(CO)c1O 7.08 µM [inhibitor, partial curve, poor fit], Cn1cc(/C=C2\SC(=O)NC2=S)c2ccccc21 3.98 µM [inhibitor, full curve], C/C=C/c1ccccc1OCc1ccc(C(=O)OC)o1 22.4 µM [inhibitor, partial curve, poor fit], Cc1cc(NS(=O)(=O)N(C)C)ccc1C(C)C 10 µM [inhibitor, partial curve, poor fit], Cc1cccc(C)c1NC(=O)C1C(c2ccc3c(c2)OCO3)=Nc2ccccc2N1C(=O)c1ccccn1 (stereo unspecified) 28.2 µM [inhibitor, single point], CCSc1ncc(/C=N/Nc2ccc(F)cc2)n1C 28.2 µM [inhibitor, single point], COc1ccc(NC(=O)Cn2nnc(-c3ccccc3NC(=O)c3ccco3)n2)cc1 3.98 µM [inhibitor, partial curve, poor fit], COc1ccc(-c2noc(CCC(=O)N(C)c3cccc(C)c3)n2)cc1 31.6 µM [inhibitor, partial curve, poor fit], Cc1ccc(CNC(=O)c2ccc(N3CCc4ccccc43)c([N+](=O)[O-])c2)cc1 14.1 µM [inhibitor, single point], COc1ccc(C(c2nnnn2Cc2ccc(F)cc2)N2CCN(c3ccccc3)CC2)cc1 (stereo unspecified) 12.6 µM [inhibitor, partial curve, poor fit], CNC(=S)N1N=C(c2ccc(Br)cc2)CC1c1ccc(OC)cc1 (stereo unspecified) 28.2 µM [inhibitor, single point], O=C(NCc1cccc(Cl)c1)c1ccc2ccccc2n1 12.6 µM [inhibitor, single point], CCCc1nc(SC)ncc1C(=O)N1CCN(c2ccc(Cl)cc2)CC1 28.2 µM [inhibitor, single point], COC(=O)c1sc(NC(=O)c2ccc(OC)cc2OC)nc1C 28.2 µM [inhibitor, single point], C=CCc1ccc(OCC(O)CN2CCN(Cc3ccccc3)CC2)c(OC)c1 (stereo unspecified) 7.94 µM [inhibitor, partial curve], Oc1c(C(c2ccc(Cl)cc2Cl)N2CCN(c3ccccc3)CC2)sc2nc(-c3ccco3)nn12 (stereo unspecified) 12.6 µM [inhibitor, single point], O=C(NCc1cccc(Cl)c1)c1ccc(NC(=O)N2CC3CCCN3c3ccccc32)cc1 (stereo unspecified) 12.6 µM [inhibitor, single point], CCCCC(CC)CNC(=O)Cn1c(=O)[nH]c2ccsc2c1=O (stereo unspecified) 10 µM [inhibitor, partial curve, poor fit], Cc1cc(NC(=O)c2cc(C(C)(C)C)oc2C)no1 11.2 µM [inhibitor, partial curve, poor fit], O=C(CN1CC(=O)Nc2ccccc21)Nc1ccc(F)c(F)c1 28.2 µM [inhibitor, single point], CCOC(=O)C1(CCOc2ccccc2)CCN(Cc2cccc(OCCO)c2)CC1 8.91 µM [inhibitor, partial curve], CCN(CC)S(=O)(=O)c1cccc(NC(=O)CN(C)Cc2cccc(OC)c2)c1 12.6 µM [inhibitor, single point], Cc1cc(C)cc(Oc2ccc(C(F)(F)F)cc2C#N)c1 12.6 µM [inhibitor, single point], Oc1ccc2ccccc2c1C1Nc2cccc3cccc(c23)N1 14.1 µM [inhibitor, single point], Cc1ccc(Nc2nc(N)c3ccccc3n2)cc1Cl 10 µM [inhibitor, partial curve, poor fit], O=C1CN(C(=O)CCN2CCOCC2)C(c2ccccc2)c2cc(Br)ccc2N1 (stereo unspecified) 31.6 µM [inhibitor, single point], Cc1cccc(OCc2nc(-c3ccccn3)n[nH]2)c1 22.4 µM [inhibitor, single point]

Potency, active:
CCN1CCN(c2ccc(N3CCN(S(=O)(=O)c4ccc(C)c([N+](=O)[O-])c4)CC3)nn2)CC1 1.58 µM

Potency, inactive:
COCCCNC(=O)/C(C#N)=C/c1ccc(OCC(=O)O)c(OC)c1, COc1ccccc1N(O)C1CC(=O)N(c2ccc(F)cc2)C1=O (stereo unspecified), CCCn1c(SCc2nc(-c3ccc(OC)c(OC)c3)no2)nnc1-c1ccccc1, Cc1ccc(NC(=O)c2cnn3c(C(F)F)cc(-c4ccccc4)nc23)cc1F, CCCN1C(=O)CC(c2ccco2)Sc2ccccc21 (stereo unspecified), COc1ccc(CN(Cc2ccco2)c2cnc(S(C)(=O)=O)nc2C(=O)Nc2ccc(C)c(Cl)c2)cc1, CC(C)Oc1ccc(CNC(=O)c2ccc(CN3CC(=O)N4CCCCC4C3=O)cc2)cc1 (stereo unspecified), O=C(CN1CCOCC1)Nc1cccc(C(=O)Nc2cccc(C(F)(F)F)c2)c1, Cc1ccc(CNC(=O)C2CCN(S(=O)(=O)c3c(C)noc3/C=C/c3cccs3)CC2)cc1

Activity change, negative = inhibition, inconclusive:
CC(NC(=O)Cn1c(=O)[nH]c2ccsc2c1=O)C12CC3CC(CC(C3)C1)C2 (stereo unspecified) -63.1% [inhibitor]
